Assay results: the supplement of paper PMC4967469
IC50 is the fitted dose that halves viability relative to control wells, and lower means more sensitive; where the fit passes the top or lowest dose, that dose stands as a limit. AUC, from the same fit, is the share of area under the viability curve across the 256-fold dose range; values near 1 show little effect. An inferred top dose comes from the curve model; the source does not state it.

How the values were obtained:
Assay in all cases: Viability of human cancer cell lines after 72 h of drug (GDSC screen)
CAY10603 = compound: CC(C)(C)OC(=O)Nc1ccc(-c2cc(C(=O)NCCCCCCC(=O)NO)no2)cc1 [CAY10603]; details: top dose 20 µM; top dose inferred
Experimental: (§1)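 Human cancer cell lines in 384-well plates, medium with 10% serum, drug for 72 h over a 256-fold dose range (nine 2-fold or five 4-fold steps up to the top dose). Adherent lines were fixed and stained with the nucleic acid dye Syto60, suspension lines read with resazurin; signal relative to control wells, capped at 0 and 100%. One two-parameter sigmoid per drug and line, fitted in a mixed model over all curves with the slope shared within a line.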

ACHP (KIN001-260) = compound: N#Cc1c(C2CCNCC2)cc(-c2c(O)cccc2OCC2CC2)nc1N [ACHP (KIN001-260)]; details: top dose 20 µM; top dose inferred
Experimental: as §1

CH5424802 = compound: CCc1cc2c(cc1N1CCC(N3CCOCC3)CC1)C(C)(C)c1[nH]c3cc(C#N)ccc3c1C2=O [CH5424802]; details: top dose 5.12 µM; top dose inferred
Experimental: as §1

Row | Cell Line | AUC (CAY10603) | IC50 (CAY10603) [µM] | AUC (ACHP (KIN001-260)) | IC50 (ACHP (KIN001-260)) [µM] | AUC (CH5424802) | IC50 (CH5424802) [µM]
1 | NCI-H358 (lung adenocarcinoma, adherent) | 0.433 | 0.802 | 0.945 | > 20 | 0.943 | > 5.12
2 | RPMI-6666 (Hodgkin lymphoma, suspension) | 0.261 | 0.221 | 0.749 | 7.68 | 0.917 | > 5.12
3 | NCI-SNU-1 (stomach, suspension) | 0.49 | 1.17 | 0.878 | > 20 | 0.986 | > 5.12
4 | SCC-9 (head and neck, adherent) | 0.537 | 1.63 | 0.972 | > 20 | 0.923 | > 5.12
5 | SU-DHL-1 (anaplastic large cell lymphoma, suspension) | 0.656 | 2.97 | 0.997 | > 20 | 0.051 | –
6 | HMV-II (melanoma, adherent) | 0.609 | 2.66 | 0.873 | > 20 | 0.978 | > 5.12
7 | CTB-1 (B-cell lymphoma, suspension) | 0.223 | 0.14 | 0.915 | > 20 | 0.938 | > 5.12
8 | FU-OV-1 (ovary, adherent) | 0.513 | 1.37 | 0.948 | > 20 | 0.965 | > 5.12
9 | PA-TU-8902 (pancreas, adherent) | 0.527 | 1.5 | 0.968 | > 20 | 0.98 | > 5.12
10 | NCI-H1417 (small cell lung carcinoma, suspension) | 0.458 | 0.939 | 0.958 | > 20 | 0.911 | > 5.12
11 | NCI-H1092 (small cell lung carcinoma, suspension) | 0.521 | 1.43 | 0.975 | > 20 | 0.98 | > 5.12
12 | KALS-1 (glioma, adherent) | 0.596 | 2.53 | 0.955 | > 20 | 0.976 | > 5.12
13 | SNU-61 (large intestine, adherent) | 0.445 | 0.846 | 0.972 | > 20 | 0.958 | > 5.12
14 | MDA-MB-157 (breast, adherent) | 0.612 | 2.55 | 0.988 | > 20 | 0.986 | > 5.12
15 | SK-ES-1 (Ewing sarcoma, semi-adherent) | 0.28 | 0.284 | 0.951 | > 20 | 0.947 | > 5.12
16 | SCC-3 (B-cell lymphoma, suspension) | 0.511 | 1.33 | 0.991 | > 20 | 0.208 | 0.0618
17 | RCC10RGB (kidney, adherent) | 0.699 | 7.92 | 0.934 | > 20 | 0.972 | > 5.12
18 | MOLT-13 (T-cell lymphoblastic leukaemia, suspension) | 0.154 | 0.13 | 0.931 | > 20 | 0.953 | > 5.12
19 | CHP-126 (neuroblastoma, suspension) | 0.497 | 1.22 | 0.941 | > 20 | 0.977 | > 5.12
20 | SCH (stomach, adherent) | 0.978 | > 20 | 0.988 | > 20 | 0.987 | > 5.12
21 | HOP-62 (lung adenocarcinoma, adherent) | 0.422 | 0.764 | 0.935 | > 20 | 0.979 | > 5.12
22 | HLE (liver, adherent) | 0.434 | 0.836 | 0.97 | > 20 | 0.971 | > 5.12
23 | P32-ISH (Burkitt lymphoma, suspension) | 0.221 | 0.252 | 0.963 | > 20 | 0.994 | > 5.12
24 | VMRC-RCW (kidney, adherent) | 0.7 | 4.34 | 0.975 | > 20 | 0.989 | > 5.12
25 | JM1 (B-cell lymphoma, suspension) | 0.171 | 0.155 | 0.952 | > 20 | 0.964 | > 5.12

Row | Cell Line | AUC (CAY10603) | IC50 (CAY10603) [µM] | AUC (ACHP (KIN001-260)) | IC50 (ACHP (KIN001-260)) [µM] | AUC (CH5424802) | IC50 (CH5424802) [µM]
26 | DAN-G (pancreas, adherent) | 0.634 | 2.78 | 0.992 | > 20 | 0.991 | > 5.12
27 | OCI-M1 (acute myeloid leukaemia, suspension) | 0.09 | 0.0965 | 0.922 | 18.3 | 0.895 | 3.62
28 | MKN1 (stomach, adherent) | 0.646 | 3.24 | 0.975 | > 20 | 0.984 | > 5.12
29 | JiyoyeP-2003 (Burkitt lymphoma, suspension) | 0.405 | 0.709 | 0.956 | > 20 | 0.99 | > 5.12
30 | D-283MED (medulloblastoma, adherent) | 0.697 | 4.22 | 0.988 | > 20 | 0.989 | > 5.12
31 | SW156 (kidney, adherent) | 0.829 | 14.4 | 0.956 | > 20 | 0.974 | > 5.12
32 | 786-0 (kidney, adherent) | 0.466 | 1.02 | 0.98 | > 20 | 0.985 | > 5.12
33 | HO-1-N-1 (head and neck, adherent) | 0.635 | 2.86 | 0.982 | > 20 | 0.987 | > 5.12
34 | PC-3 [JPC-3] (lung adenocarcinoma, adherent) | 0.679 | 4.69 | 0.928 | > 20 | 0.894 | > 5.12
35 | EFO-21 (ovary, adherent) | 0.727 | 7.46 | 0.933 | > 20 | 0.939 | > 5.12
36 | SF126 (glioma, adherent) | 0.56 | 1.84 | 0.974 | > 20 | 0.981 | > 5.12
37 | GCT (soft tissue, adherent) | 0.88 | 18.1 | 0.989 | > 20 | 0.989 | > 5.12
38 | PF-382 (T-cell lymphoblastic leukaemia, suspension) | 0.257 | 0.281 | 0.944 | > 20 | 0.984 | > 5.12
39 | KY821 (leukaemia, suspension) | 0.54 | 1.59 | 0.987 | > 20 | 0.991 | > 5.12
40 | KP-N-YS (neuroblastoma, adherent) | 0.202 | 0.141 | 0.9 | > 20 | 0.938 | > 5.12
41 | SNU-398 (liver, adherent) | 0.502 | 1.27 | 0.917 | > 20 | 0.977 | > 5.12
42 | BHY (head and neck, adherent) | 0.528 | 1.49 | 0.986 | > 20 | 0.975 | > 5.12
43 | NCI-H596 (lung adenocarcinoma, adherent) | 0.563 | 1.96 | 0.98 | > 20 | 0.959 | > 5.12
44 | IST-SL1 (small cell lung carcinoma, semi-adherent) | 0.25 | 0.234 | 0.892 | > 20 | 0.965 | > 5.12
45 | NB17 (neuroblastoma, adherent) | 0.637 | 3.17 | 0.972 | > 20 | 0.708 | 1.36
46 | M14 (melanoma, adherent) | 0.671 | 3.85 | 0.95 | > 20 | 0.986 | > 5.12
47 | NCI-H2085 (lung adenocarcinoma, adherent) | 0.678 | 4.1 | 0.918 | > 20 | 0.929 | > 5.12
48 | KARPAS-45 (lymphoblastic leukaemia, suspension) | 0.262 | 0.302 | 0.852 | 11.7 | 0.974 | > 5.12
49 | NCI-H1836 (small cell lung carcinoma, suspension) | 0.499 | 1.24 | 0.982 | > 20 | 0.968 | > 5.12
50 | A204 (rhabdomyosarcoma, adherent) | 0.521 | 1.45 | 0.928 | > 20 | 0.977 | > 5.12

Row | Cell Line | AUC (CAY10603) | IC50 (CAY10603) [µM] | AUC (ACHP (KIN001-260)) | IC50 (ACHP (KIN001-260)) [µM] | AUC (CH5424802) | IC50 (CH5424802) [µM]
51 | RERF-GC-1B (stomach, adherent) | 0.815 | 12.7 | 0.981 | > 20 | 0.969 | > 5.12
52 | NCI-H510A (small cell lung carcinoma, semi-adherent) | 0.435 | 0.842 | 0.97 | > 20 | 0.99 | > 5.12
53 | MRK-nu-1 (breast, suspension) | 0.661 | 3.37 | 0.92 | > 20 | 0.99 | > 5.12
54 | YT (lymphoid neoplasm, suspension) | 0.189 | 0.18 | 0.887 | 16.4 | 0.973 | > 5.12
55 | RPMI-8226 (myeloma, suspension) | 0.435 | 0.852 | 0.927 | > 20 | 0.936 | > 5.12
56 | SBC-5 (small cell lung carcinoma, adherent) | 0.474 | 1.08 | 0.993 | > 20 | 0.993 | > 5.12
57 | MOLT-4 (lymphoblastic leukaemia, suspension) | 0.262 | 0.306 | 0.969 | > 20 | 0.855 | 2.95
58 | MDA-MB-453 (breast, adherent) | 0.336 | 0.414 | 0.973 | > 20 | 0.956 | > 5.12
59 | NCI-H727 (lung carcinoid, adherent) | 0.882 | > 20 | 0.964 | > 20 | 0.969 | > 5.12
60 | MDA-MB-361 (breast, adherent) | 0.539 | 1.6 | 0.98 | > 20 | 0.989 | > 5.12
61 | HPAF-II (pancreas, adherent) | 0.896 | > 20 | 0.97 | > 20 | 0.943 | > 5.12
62 | ML-1 (thyroid, adherent) | 0.447 | 0.875 | 0.977 | > 20 | 0.98 | > 5.12
63 | NCI-H2405 (lung adenocarcinoma, adherent) | 0.836 | 15.3 | 0.97 | > 20 | 0.972 | > 5.12
64 | NCI-H2052 (mesothelioma, adherent) | 0.847 | > 20 | 0.982 | > 20 | 0.952 | > 5.12
65 | DB (B-cell lymphoma, suspension) | 0.211 | 0.154 | 0.822 | 13.7 | 0.969 | > 5.12
66 | BFTC-909 (kidney, adherent) | 0.694 | 4.32 | 0.975 | > 20 | 0.987 | > 5.12
67 | U-118-MG (glioma, adherent) | 0.694 | 4.81 | 0.964 | > 20 | 0.983 | > 5.12
68 | PE/CA-PJ15 (head and neck, adherent) | 0.698 | 4.74 | 0.979 | > 20 | 0.981 | > 5.12
69 | HDQ-P1 (breast, adherent) | 0.551 | 1.76 | 0.985 | > 20 | 0.923 | > 5.12
70 | H-EMC-SS (chondrosarcoma, adherent) | 0.791 | 12.1 | 0.879 | > 20 | 0.97 | > 5.12
71 | 42-MG-BA (glioma, adherent) | 0.639 | 3.12 | 0.973 | > 20 | 0.985 | > 5.12
72 | HOS (osteosarcoma, adherent) | 0.991 | > 20 | 0.992 | > 20 | 0.992 | > 5.12
73 | BICR22 (head and neck, adherent) | 0.764 | 8.33 | 0.983 | > 20 | 0.977 | > 5.12
